The values below come from ChEMBL document CHEMBL4888484, “Replenishing the malaria drug discovery pipeline: Screening and hit evaluation of the MMV Hit Generation Library 1 (HGL1) against asexual blood stage Plasmodium falciparum ,using a nano luciferase reporter read-out” (2022).

About 540 (0.36%) of roughly 150,000 compounds showed an effect of 50% or more. The list shows a part of the results.

The test system of the assay is Plasmodium falciparum. Kind of assay: Primary screen in NF54 nanoGlo assay, in single point, at 2uM, 72h; a lower Z score goes with more inhibition. The assay is classed as functional, Erythrocyte. The note with it: timepoint 72 hour.
With `COc1cc(S(=O)(=O)Nc2ccccc2N(C)C)sn1`, the “% Inhibition” value worked out at 11% and the Z score is -1.46.

As for `Cc1ccc(CNc2ccc(S(C)(=O)=O)cc2)c(=O)n1C`, the “% Inhibition” value turned out to be 33% and the Z score is -4.41.

With `c1cc(-c2nnn(CCc3ccc4c(c3)CCO4)n2)cs1`, the “% Inhibition” value was -10% and the Z score was determined as 1.01.

As to `C#CCN(CCOC)Cc1cccc(C)n1`, the “% Inhibition” value is -4% and the Z score turned out to be 0.84.

As to `Cc1nc(C)c(COC(=O)C[C@@H](CN)CC(C)C)s1`, the “% Inhibition” value was -34% and the Z score turned out to be 3.97.

On to `Cc1cccn2c(=O)c(C(=O)NCc3cc(C4CC4)ccc3F)cnc12`, for which the “% Inhibition” value is reported as 2% and the Z score is -0.17.

As to `CN1CCN(C)[C@@H](CNC(=O)NC(C)(C)CC(C)(C)C)C1`, the “% Inhibition” value was determined as 30% and the Z score is given as -3.35.

For the compound `CC(C)CNCc1cccc(Br)c1`, the “% Inhibition” value was found to be 32% and the Z score was -4.33.

`CC(C)c1ocnc1C(=O)OCc1ccc2[nH]nnc2c1`: the “% Inhibition” value was determined as 1% and the Z score is listed as -0.14.

As to `CC1=NN(C2CCS(=O)(=O)C2)C(=O)C1C(=O)Nc1ccccc1` (stereo not given), the “% Inhibition” value is reported as -2% and the Z score is 0.43.

With `COc1ccc(-n2ccnc2-c2cc(C#CCO)cs2)cc1`, the “% Inhibition” value is recorded as -11% and the Z score is reported as 1.35.

As for `Cc1c[nH]c(C(=O)N[C@H]2CCN(Cc3cscn3)C[C@@H]2O)n1`, the “% Inhibition” value is recorded as 12% and the Z score is recorded as -2.22.

`Nc1nc(-c2ccccc2)[n+](-c2ccccc2)s1`: the “% Inhibition” value was -10% and the Z score worked out at 1.48.

As to `CC1CCC(NC(=O)c2cnn[nH]2)CC1` (stereo not given), the “% Inhibition” value was -9% and the Z score turned out to be 1.8.

Turning to `O=C1C2CCCCC2C(=O)N1CN1CCN(c2ccccn2)CC1` (stereo not given), the “% Inhibition” value is given as -10% and the Z score came out at 1.36.

`CC(=O)N1CC[C@H](CN(C)S(=O)(=O)c2cc(F)c(F)cc2F)C1`: the “% Inhibition” value stood at 12% and the Z score was -1.86.

Consider `Cc1cccc(C(=O)N2CCC[C@H](c3cc(N4CCOCC4)ncn3)C2)c1`, for which the “% Inhibition” value is recorded as -1% and the Z score worked out at 0.09.

`COc1ccc(OC)c2c1cc(C(=O)Nc1cccnc1)n2C`: the “% Inhibition” value is -16% and the Z score amounted to 2.02.

For `COCCC1(CNC(=O)c2cc(-n3ccnc3C)ccn2)CCCCC1`, the “% Inhibition” value was -2% and the Z score was determined as 0.2.

As for `c1ccc(-n2ccc(Cn3ccnn3)n2)cc1`, the “% Inhibition” value is on record as -9% and the Z score came to 1.33.

As to `Cc1ccc(CNC(=O)c2ccon2)c(-n2cc(Cl)cn2)n1`, the “% Inhibition” value was -2% and the Z score amounted to 0.16.

`Oc1ccccc1CCN[C@H]1CCc2ccc(F)cc21`: the “% Inhibition” value is on record as 98% and the Z score is reported as -18.88.

Regarding `CN1CC[C@H](CNC(=O)Nc2ccc3c(c2)COC3)c2ccccc21`, the “% Inhibition” value turned out to be 5% and the Z score was -0.64.

With `O=C1CC[C@H](C(=O)Nc2ccccc2Nc2c(F)cccc2F)N1`, the “% Inhibition” value is -10% and the Z score was 1.56.

In the case of `CC[C@H](O)CNCc1cccc(OC)c1F`, the “% Inhibition” value was -1% and the Z score came out at 0.26.

With `O=C(NCCc1ccccn1)c1cc2n(n1)CCN(Cc1c(F)cccc1Cl)C2=O`, the “% Inhibition” value came out at 14% and the Z score is given as -1.72.

`CCN1C[C@@H](CN(C)c2nc(C)nc3c2c(C)nn3C)CC1=O`: the “% Inhibition” value is recorded as -2% and the Z score was 0.24.

For the compound `Cc1cncc(C(=O)NCc2ccnc(OC3CCC3)c2)c1`, the “% Inhibition” value is reported as -6% and the Z score was 0.73.

Take `COC(=O)c1ccccc1CN(Cc1ccccc1)Cc1cccn1Cc1ccccc1C`: the “% Inhibition” value is given as -10% and the Z score is given as 1.39.

Turning to `O=c1c(-c2nc(-c3ccc(F)cc3)no2)c[nH]c2ccccc12`, the “% Inhibition” value is -7% and the Z score turned out to be 1.05.

On to `CCCCNCCOc1ccc(Cl)c(Cl)c1`, for which the “% Inhibition” value was -18% and the Z score was found to be 2.36.

Turning to `Cc1cc(C)n(CCC(=O)N2C[C@H]3C[C@H](C2)[C@H]2CCCC(=O)N2C3)n1`, the “% Inhibition” value is -2% and the Z score is reported as 0.48.

`O=C(NCc1ccccc1)c1cc2n(n1)CCN(Cc1cccc(C(F)(F)F)c1)C2=O`: the “% Inhibition” value is -17% and the Z score is given as 1.68.

On to `Fc1cc(Br)cc2c(NCCc3nnc4n3CCC4)cc(C(F)(F)F)nc12`, for which the “% Inhibition” value is on record as -12% and the Z score is given as 1.62.

Consider `Cc1ccc(C(=O)N(Cc2nn(C)c3c2CN(S(=O)(=O)c2ccccc2F)CC3)c2ccccc2)cc1`, for which the “% Inhibition” value is -17% and the Z score is given as 1.5.

With `C[C@@H](CNS(=O)(=O)c1cccs1)c1nc2ccccc2o1`, the “% Inhibition” value is recorded as -8% and the Z score was determined as 0.96.

Take `O=C(N[C@H]1CO[C@H]2[C@@H]1OC[C@@H]2Nc1nccc(-c2ccc(-c3ccccc3)cc2)n1)c1ccc(C(F)(F)F)cc1`: the “% Inhibition” value worked out at 7% and the Z score is listed as -0.84.

As for `CCNCC#CCOc1ccc(C)cc1`, the “% Inhibition” value was -9% and the Z score came out at 0.99.

As for `NS(=O)(=O)Cc1cc(Cl)ccc1F`, the “% Inhibition” value was -6% and the Z score was found to be 0.86.

Turning to `CC[C@H]1OCC[C@@H]1NC(=O)c1ccsn1`, the “% Inhibition” value worked out at 2% and the Z score is on record as -0.33.

On to `NC(=O)C1CCCCC1NC(=O)CC1(N2CCOCC2)CCCC1` (stereo not given), for which the “% Inhibition” value was 30% and the Z score is listed as -3.34.

For `CN(Cc1ncc[nH]1)C(=O)c1cccc(-c2cc(N3CCCC3)nc(N)n2)c1`, the “% Inhibition” value is reported as -2% and the Z score is on record as 0.39.

Regarding `Cc1nnc(-c2ccccc2/C=C/C2CCCCC2)o1`, the “% Inhibition” value is reported as -2% and the Z score was 0.39.

Take `Cn1ccnc1NC(=O)c1ccccc1-c1nccn1C`: the “% Inhibition” value was determined as 5% and the Z score is -0.51.

As for `CN(Cc1ccccc1)c1cnn(CC[C@@H](O)c2ccccc2)c(=O)c1`, the “% Inhibition” value was -4% and the Z score turned out to be 0.71.

Take `CC(C)(C)OC(=O)N1C2CCC1CN(c1ccccn1)CC2` (stereo not given): the “% Inhibition” value is given as -6% and the Z score was 0.79.

As for `CCOc1ccc(NC(=O)c2ccc(N3CC4CC(C3)c3cccc(=O)n3C4)c(NC(=O)CCN3CCOCC3)c2)cc1` (stereo not given), the “% Inhibition” value turned out to be 11% and the Z score was -1.25.

Turning to `Cc1ccc(C(=O)N[C@H](c2cccnc2)C(C)C)n1C(F)F`, the “% Inhibition” value is -9% and the Z score is 1.03.

Turning to `O=C(c1ccccc1C(F)(F)F)N1CC2(CCOC2)C1`, the “% Inhibition” value was determined as 5% and the Z score is -0.56.

On to `N#CCCCS(=O)(=O)Cc1ccc(Br)c(Cl)c1`, for which the “% Inhibition” value is -6% and the Z score is given as 0.56.

Turning to `Cc1cc2c(N3CCC(N[C@@H](C)c4n[nH]c(=O)[nH]4)CC3)ncnc2s1`, the “% Inhibition” value is given as -8% and the Z score came out at 1.35.

As for `CC(C)(C)OC(=O)N1CC[C@H](NCc2cc[nH]n2)C1(C)C`, the “% Inhibition” value was 7% and the Z score is listed as -1.32.

`O=C(NCc1cccc(O)c1)c1cccc(-n2cccn2)n1`: the “% Inhibition” value was 7% and the Z score is -0.85.

For `COc1ccc(NC(=O)[C@H]2CC23CCN(Cc2cccc4ncccc24)CC3)cc1Cl`, the “% Inhibition” value was -15% and the Z score is 1.66.

In the case of `CCOc1nc(-c2cccs2)n(-c2ccc(NC(=O)CC(C)C)cc2)n1`, the “% Inhibition” value is -3% and the Z score came out at 0.4.

As usually defined, the % Inhibition is the change of the read-out against control, counted positive when it falls.
